Experimental data: the supplement of paper PMC8728848
This is one part of the list.

What was measured:
Experiment in all cases: glycan array binding signal (z-score within array); higher = stronger binding
Settings in all cases: glycan notation: IUPAC condensed, linker removed
[1] = molecular target: Neu5Gc(a2-8)Neu5Gc(a2-3)Gal(b1-4)GlcNAc(b1-3)Gal(b1-4)GlcNAc
Outline: (§1)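 Columns mapping to the same glycan were averaged after glycan names were converted to IUPAC-condensed notation. The data come from 3228 arrays in the Consortium for Functional Glycomics database, limited to those with an available protein sequence. Binding is reported as a within-array Z-score averaged across arrays of one protein sequence and across linkers.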

[2] = molecular target: Neu5Gc(a2-8)Neu5Gc(a2-6)Gal(b1-4)GlcNAc
Outline: as §1

[3] = molecular target: Neu5Gc(b2-6)Gal(b1-4)GlcNAc
Outline: as §1

B1: DC-ASGPR-short (Homo sapiens) (protein)
chain: MTRTYENFQYLENKVKVQGFKNGPLPLQSLLQRLRSGPCHLLLSLGLGLLLLVIICVVGFQNSKFQRDLVTLRTDFSNFTSNTVAEIQALTSQGSSLEETIASLKAEVEGFKQERQAVHSEMLLRVQQLVQDLKKLTCQVATLNNNASTEGTCCPVNWVEHQDSCYWFSHSGMSWAEAEKYCQLKNAHLVVINSREEQNFVQKYLGSAYTWMGLSDPEGAWKWVDGTDYATGFQNWKPGQPDDWQGHGLGGGEDCAHFHPDGRWNDDVCQRPYHWVCEAGLGQTSQESH
glycan array binding signal (z-score) [1]: -0.28
glycan array binding signal (z-score) [2]: -0.279
glycan array binding signal (z-score) [3]: -0.278
